According to patent publication US20250171556A1 (VIRTUOSO BINCO, published 2025):

Target: T1, recombinant human EGFR (human, UniProt P00533 fragment)
T1 construct: Recombinant protein for ELISA coating; also called human EGFR recombinant protein
Assay: ELISA, plate coated with recombinant human EGFR, detection with peroxidase anti-human IgG (Fab specific), OD450
Description: A 96-well plate was coated overnight at 4° C. with 1 μg/mL recombinant human CD47 or human EGFR. After washing 3 times, the plate was blocked with 300 μL 1% BSA in PBST at 37° C. for 1 hour. Serially diluted antibodies were added and incubated at 37° C. for 1 hour. The plate was then washed 4 times with PBST and incubated with 1:5000 diluted peroxidase labeled goat anti-human IgG (Fab specific) secondary antibody (Sigma, Cat #A0293) for 1 hour at 37° C. The plate was washed again 4 times with PBST, incubated with 3,3′,5,5′-tetramethylbenzidine (TMB) substrate for 15 min at room temperature, terminated with 1N HCl, and then read at 450 nm.

- EC50 (read off the curve): ~0.07 nM
B1: Panitumumab×VIR47.V8 (bispecific antibody, human IgG1, kappa)
heavy: QVQLQESGPGLVKPSETLSLTCTVSGGSVSSGDYYWTWIRQSPGKGLEWIGHIYYSGNTNYNPSLKSRLTISIDTSKTQFSLKLSSVTAADTAIYYCVRDRVTGAFDIWGQGTMVTVSS[letters of human IgG1 constant region with changes left out]
light: DIQMTQSPSSLSASVGDRVTITCQASQDISNYLNWYQQKPGKAPKLLIYDASNLETGVPSRFSGSGSGTDFTFTISSLQPEDIATYFCQHFDHLPLAFGGGTKVEIKRTVAAPSVFIFPPSDEQLKSGTASVVCLLNNFYPREAKVQWKVDNALQSGNSQESVTEQDSKDSTYSLSSTLTLSKADYEKHKVYACEVTHQGLSSPVTKSFNRGEC
scFv: EVQLLESGGGLVQPGGSLRLSCAASGFTFSNFAMSWVRQAPGKGLEWVSTISASGGRTFYADSVKGRFTISRDNSKNTLYLQMNSLRAEDTAVYYCAKEGSFGEGVDPWGQGTLVTVSSGGGGSGGGGSGGGGSSYELTQPPSVSVSPGQTARITCSGDALPKKYAYWYQQKSGQAPVLVIYEDNKRPSGIPERFSGSSSGTMATLTISGAQVEDEADYYCYSTDISGNHWVFGGGTKLTVLGGSGGSGGA[letters of human IgG1 Fc with changes left out]
notes: the tie rests on the name; also called Panitumumab xVIR47.V8; Panitumumab × VIR47.V8_v2
